We go through 60 compounds from the supplement of paper PMC9446081.

About 220 (0.56%) of roughly 39,000 compounds showed activity. Some of the results follow.
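Further: static incubation at 37 °C against the wild-type strain, values averaged over two biological replicates.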

This assay has as its system Escherichia coli K-12 BW25113. The assay can be described thus: relative growth (OD600 normalised to plate interquartile mean) (fraction); higher = less growth inhibition, active = 0.2 or less. Particulars: 50 µM; LB; incubation time: overnight (16-24 h).
`N=C(N)NCc1cn(CC(=O)N2CCN(c3ccccc3)CC2)nn1`: the relative growth was inactive: 0.995. As for `COc1ccc(S(=O)(=O)N(C)C[C@@H]2Oc3c(cccc3N(C)C)C(=O)N([C@H](C)CO)C[C@@H]2C)cc1`, the relative growth was inactive: 0.987. Turning to `C[C@@H]1CN([C@@H](C)CO)S(=O)(=O)c2ccc(C#Cc3ccccn3)cc2O[C@H]1CN(C)Cc1ccccc1`, the relative growth is inactive: 1.03. On to `C[C@@H]1CCCCO[C@H](CN(C)CC2CCCCC2)[C@H](C)CN([C@@H](C)CO)C(=O)c2cc(NC(=O)c3ccncc3)ccc2O1`, for which the relative growth is inactive: 1.

As to `O=C(C[C@@H]1C[C@H]2c3cc(NS(=O)(=O)c4ccc(F)cc4)ccc3O[C@H]2[C@H](CO)O1)NCc1ccccn1`, the relative growth was inactive: 1.03.

As to `CO[C@H](CN(C)S(=O)(=O)c1ccc(Cl)cc1)[C@H](C)CN([C@H](C)CO)S(=O)(=O)c1cccc(Cl)c1`, the relative growth is inactive: 0.989. Regarding `Cc1noc(C)c1NC(=O)Nc1ccc2c(c1)C(=O)N([C@@H](C)CO)C[C@H](C)[C@H](CN(C)Cc1ccc(C(F)(F)F)cc1)O2`, the relative growth was inactive: 1.01. Turning to `C[C@@H]1CN([C@@H](C)CO)C(=O)c2c(c3ccccc3n2C)-c2ccccc2CO[C@H]1CN(C)Cc1ccc(O)cc1`, the relative growth was inactive: 0.992. Turning to `CN(C)CCCNC(=O)C[C@H]1C=C[C@@H](NS(=O)(=O)c2ccccc2)[C@@H](CO)O1`, the relative growth is inactive: 0.996. `Cc1cc(S(=O)(=O)NCC(=O)O)ccc1F`: the relative growth was inactive: 1.01.

Consider `NC1=N[C@H]2CS[C@@H](CCCCC(=O)O)[C@H]2N1`, for which the relative growth is inactive: 1.01. Consider `C[C@@H]1CN([C@@H](C)CO)C(=O)c2cccc(NC(=O)C3CCCCC3)c2O[C@H]1CN(C)S(=O)(=O)c1cn(C)cn1`, for which the relative growth was inactive: 1.01. In the case of `Cc1ccc(S(=O)(=O)Nc2ccc3c(c2)C(=O)N([C@H](C)CO)C[C@H](C)[C@@H](CN(C)S(=O)(=O)c2cccs2)O3)cc1`, the relative growth was inactive: 1.03. With `COc1cccc(S(=O)(=O)N2C[C@H](O)COC[C@H]3O[C@@H](CC(=O)N4CCN(c5ccccc5)CC4)CC[C@@H]32)c1`, the relative growth was inactive: 1.01. For the compound `C[C@@H]1CN([C@@H](C)CO)C(=O)c2cccc(NC(=O)c3cnccn3)c2O[C@@H]1CN(C)S(=O)(=O)c1ccc(Cl)cc1`, the relative growth is inactive: 0.991. `CC(C)NC(=O)N(C)C[C@@H]1Oc2ccc(NC(=O)CCCN(C)C)cc2CC(=O)N([C@H](C)CO)C[C@@H]1C`: the relative growth is inactive: 0.991. With `Cc1ccc(S(=O)(=O)Nc2ccc3c(c2)C(=O)N([C@H](C)CO)C[C@@H](C)[C@H](CN(C)C(=O)Nc2cccc4ccccc24)OCCCC[C@@H](C)O3)cc1`, the relative growth is inactive: 1.01. On to `COc1ccc([Si](C)(C)[C@H]2[C@H](CC(=O)N(CCO)Cc3ccccc3)O[C@@]3(C(=O)N(Cc4ccc(N5C(=O)c6cccc7cccc5c67)cc4)c4ccccc43)[C@@H]2C)cc1`, for which the relative growth was inactive: 1.04. On to `C[C@@H]1CCCCO[C@@H](CN(C)Cc2ccc(Cl)c(Cl)c2)[C@H](C)CN([C@H](C)CO)C(=O)c2cc(NC(=O)Nc3ccccc3)ccc2O1`, for which the relative growth is inactive: 1.02. Consider `C[C@H](CO)N1C[C@H](C)[C@@H](CN(C)Cc2ccc(C(=O)Nc3ccccc3N)cc2)Oc2ccc(NC(=O)CCC(F)(F)F)cc2C1=O`, for which the relative growth is inactive: 0.963.

In the case of `Cc1noc(C)c1NC(=O)Nc1ccc2c(c1)C(=O)N([C@H](C)CO)C[C@H](C)[C@H](CN(C)CC1CCCCC1)OCCCC[C@H](C)O2`, the relative growth was inactive: 0.994.

Turning to `O=C1CNC(=O)N1C1CCNCC1`, the relative growth was inactive: 0.999.

For the compound `CCOC(=O)NNc1nncc2ccccc12.Cl`, the relative growth is inactive: 1.05.

Turning to `CC1(C(=O)O)CCC2(C)CCC3(C)C(=CC(=O)C4C5(C)CCC(OC6OC(C(=O)O)C(O)C(O)C6OC6OC(C(=O)O)C(O)C(O)C6O)C(C)(C)C5CCC43C)C2C1` (stereo not given), the relative growth is inactive: 0.97. As to `Cc1ccc(S(=O)(=O)N(C)C[C@@H]2Oc3ccc(NS(=O)(=O)c4c(C)noc4C)cc3CC(=O)N([C@H](C)CO)C[C@@H]2C)cc1`, the relative growth is inactive: 0.989.

Turning to `C[C@@H]1CN([C@H](C)CO)C(=O)Cc2cc(NC(=O)CCN3CCOCC3)ccc2O[C@H]1CN(C)Cc1ccccc1`, the relative growth was inactive: 1.01. Regarding `C[C@@H]1CN([C@H](C)CO)C(=O)c2cc(NS(=O)(=O)c3cn(C)cn3)ccc2O[C@H]1CN(C)C(=O)Nc1ccc2c(c1)OCO2`, the relative growth is inactive: 1.02. Consider `C[C@H](CO)N1C[C@H](C)[C@@H](CN(C)S(=O)(=O)c2ccccc2)Oc2ccc(NC(=O)Cn3cnnn3)cc2C1=O`, for which the relative growth is inactive: 1.01. The figure for `CC[C@@]1(C)N[C@H](C(=O)O)CS1` is inactive: 1.02. `NCC[C@@H]1CC[C@H](NC(=O)C2CC2)[C@H](CO)O1`: the relative growth is inactive: 0.995. As for `Cc1ccc(S(=O)(=O)N2C[C@@H](O)COC[C@H]3O[C@H](CC(=O)NCc4ccc(Cl)c(Cl)c4)CC[C@@H]32)cc1`, the relative growth was inactive: 0.99.

With `C[C@H](CO)N1C[C@H](C)[C@@H](CN(C)C(=O)Nc2ccccc2)Oc2ccc(NS(=O)(=O)c3cn(C)cn3)cc2C1=O`, the relative growth is inactive: 0.978.

For the compound `C[C@@H]1CN([C@H](C)CO)C(=O)c2cc(NS(=O)(=O)c3ccc(Cl)cc3)ccc2O[C@@H](C)CCCCO[C@H]1CN(C)S(=O)(=O)c1ccccc1`, the relative growth was inactive: 1.01. Under `CCS(=O)(=O)Nc1ccc2c(c1)C(=O)N(C)[C@H]1CC[C@H](CC(=O)NCCCN3CCOCC3)O[C@H]1CO2` stands inactive: 0.983.

Turning to `CC1COc2c(C3(N)CC3)c(F)cc3c(=O)c(C(=O)O)cn1c23.CS(=O)(=O)O` (stereo not given), the relative growth was active: 0.0476. `CC(C)CC#Cc1ccc2c(c1)O[C@@H](CN(C)C(=O)c1ccncc1)[C@H](C)CN([C@H](C)CO)S2(=O)=O`: the relative growth is inactive: 1.02. Take `C[C@@H]1CCCCO[C@@H](CN(C)C(=O)c2ccncc2)[C@H](C)CN([C@H](C)CO)C(=O)c2cc(NC(=O)C3CCCCC3)ccc2O1`: the relative growth is inactive: 1.02. Under `C[C@H]1CN([C@@H](C)CO)C(=O)Cc2cc(NC(=O)CCC(F)(F)F)ccc2O[C@H]1CN(C)S(C)(=O)=O` stands inactive: 1.01; under `CC(=O)N(C)C[C@H]1Oc2cc(C#CCN(C)C)ccc2S(=O)(=O)N([C@@H](C)CO)C[C@H]1C`, inactive: 0.994. Consider `C[C@@H]1CN([C@@H](C)CO)S(=O)(=O)c2ccc(C#CCN(C)C)cc2O[C@H]1CN(C)C(=O)C1CCCCC1`, for which the relative growth is inactive: 0.975.

In the case of `C[C@@H]1CN([C@@H](C)CO)C(=O)c2cc(C#CC3(O)CCCC3)cnc2O[C@@H]1CN(C)C(=O)Cc1cccnc1`, the relative growth is inactive: 0.987.

Consider `CC(C)N1C[C@H](C)[C@@H](CN(C)Cc2ccc(Cl)c(Cl)c2)Oc2c(cccc2-c2cn(-c3ccncc3)nn2)C1=O`, for which the relative growth is inactive: 1.02.

For `Cc1noc(C)c1S(=O)(=O)N(C)C[C@@H]1Oc2ccc(NS(=O)(=O)c3ccccc3)cc2CC(=O)N([C@@H](C)CO)C[C@H]1C`, the relative growth is inactive: 1.03. As for `C[C@H]1CN([C@@H](C)CO)C(=O)c2ccccc2-c2ccccc2CO[C@H]1CN(C)Cc1cccc2c1OCCCO2`, the relative growth is inactive: 1.02. `COc1cccc(C#Cc2ccc3c(c2)O[C@@H](CN(C)C(=O)c2ccccn2)[C@H](C)CN([C@H](C)CO)S3(=O)=O)c1`: the relative growth is inactive: 1.02. Under `C[C@H](CO)N1C[C@H](C)[C@H](CN(C)S(=O)(=O)c2cn(C)cn2)OCCCC[C@H](C)Oc2ccc(NS(=O)(=O)c3ccc(F)cc3)cc2C1=O` stands inactive: 1.01; under `C=CCC[C@H](Cc1ccc(F)cc1)C(=O)OC[C@@H](NC(=O)[C@H](CC=C)CC(=O)N(CCO)Cc1ccccc1)C(C)(C)C`, inactive: 1.03.

Regarding `Cc1noc(C)c1NC(=O)N(C)C[C@@H]1OCCCC[C@@H](C)Oc2ccc(NC(=O)Nc3cccc4ccccc34)cc2C(=O)N([C@@H](C)CO)C[C@H]1C`, the relative growth was inactive: 1.01. As for `COc1cccc(S(=O)(=O)N(C)C[C@@H]2OCc3cnnn3CCCC(=O)N([C@@H](C)CO)C[C@H]2C)c1`, the relative growth was inactive: 0.955. Under `C=CC1CN2CCC1CC2C(O)c1ccnc2ccc(OC)cc12.O=C(O)C(O)C(O)C(O)C(O)CO` (stereo not given) stands inactive: 0.949; under `COc1ccc(S(=O)(=O)N(C)C[C@H]2OCCCC[C@@H](C)Oc3ccc(NC(=O)Nc4ccc(F)cc4)cc3C(=O)N([C@H](C)CO)C[C@@H]2C)cc1`, inactive: 1.07. As for `C[C@H]1CN([C@@H](C)CO)C(=O)Cc2cc(NC(=O)Nc3ccccc3)ccc2O[C@H]1CN(C)C(=O)Nc1cccc2ccccc12`, the relative growth is inactive: 0.993. `Cc1cc(=O)oc2cc(O)c(O)cc12`: the relative growth is inactive: 1.04. In the case of `COc1ccc(CC2c3cc(OC)c(OC)cc3CC[N+]2(C)CCC(=O)OCCCCCOC(=O)CC[N+]2(C)CCc3cc(OC)c(OC)cc3C2Cc2ccc(OC)c(OC)c2)cc1OC.O=S(=O)([O-])c1ccccc1.O=S(=O)([O-])c1ccccc1` (stereo not given), the relative growth was inactive: 0.995. As for `COCC(=O)N1C[C@@H](C)[C@H](OC)CN(C)C(=O)c2cc(NC(=O)c3cc(C)on3)ccc2OC[C@@H]1C`, the relative growth is inactive: 0.955.

Take `C[C@@H]1CN([C@H](C)CO)C(=O)Cc2cc(NC(=O)NC3CCCCC3)ccc2O[C@@H]1CN(C)Cc1ccc(C(=O)Nc2ccccc2N)cc1`: the relative growth is inactive: 1.02.

Turning to `C[C@H]1CCCCO[C@H](CN(C)S(C)(=O)=O)[C@@H](C)CN([C@@H](C)CO)C(=O)c2cc(NS(=O)(=O)c3ccccc3)ccc2O1`, the relative growth was inactive: 1.02.

Turning to `COCC(=O)N(C)C[C@H]1Oc2cc(C#C[C@@H](C)O)ccc2S(=O)(=O)N([C@@H](C)CO)C[C@@H]1C`, the relative growth is inactive: 1.03. With `CS(=O)(=O)Cc1ccc(C(=O)O)cc1`, the relative growth is inactive: 0.988. The figure for `CC(C)NC(=O)Nc1cccc2c1O[C@@H](CN(C)C(=O)NC1CCCCC1)[C@@H](C)CN([C@@H](C)CO)C2=O` is inactive: 1.01.
